Laboratory results taken from PMC4624786.
Results are given in words; binding and its absence hold for the method and conditions named. In cells and extracts the contact can be indirect. Some binding calls cover weakened binding; strength is not graded here. For part of these data: Where a sequence is shown, tags or fusion partners need not be part of it.

Sequences of proteins named here, by UniProt entry; tags and fusion partners are left off. A change or cut given only in a name is not applied to a line headed by its entry. Residues count along the entry.
UniProt O70161: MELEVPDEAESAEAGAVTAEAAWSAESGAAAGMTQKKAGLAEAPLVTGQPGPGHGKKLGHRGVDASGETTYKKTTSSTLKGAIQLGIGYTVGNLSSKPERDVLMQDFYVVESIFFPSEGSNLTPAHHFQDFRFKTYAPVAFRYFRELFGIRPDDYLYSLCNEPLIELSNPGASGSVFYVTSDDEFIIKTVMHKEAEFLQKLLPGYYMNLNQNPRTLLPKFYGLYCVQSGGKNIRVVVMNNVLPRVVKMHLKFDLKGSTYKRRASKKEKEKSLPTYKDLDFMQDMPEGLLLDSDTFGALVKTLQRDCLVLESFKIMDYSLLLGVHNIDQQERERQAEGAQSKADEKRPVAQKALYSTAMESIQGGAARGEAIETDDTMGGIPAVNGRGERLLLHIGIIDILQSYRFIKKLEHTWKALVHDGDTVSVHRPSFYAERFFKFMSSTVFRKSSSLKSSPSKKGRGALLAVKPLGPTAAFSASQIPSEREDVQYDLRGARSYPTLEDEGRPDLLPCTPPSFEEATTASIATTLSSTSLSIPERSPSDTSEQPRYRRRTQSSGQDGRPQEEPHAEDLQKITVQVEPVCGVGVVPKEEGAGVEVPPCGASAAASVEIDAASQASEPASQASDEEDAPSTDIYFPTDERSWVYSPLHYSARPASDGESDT
UniProt P70182: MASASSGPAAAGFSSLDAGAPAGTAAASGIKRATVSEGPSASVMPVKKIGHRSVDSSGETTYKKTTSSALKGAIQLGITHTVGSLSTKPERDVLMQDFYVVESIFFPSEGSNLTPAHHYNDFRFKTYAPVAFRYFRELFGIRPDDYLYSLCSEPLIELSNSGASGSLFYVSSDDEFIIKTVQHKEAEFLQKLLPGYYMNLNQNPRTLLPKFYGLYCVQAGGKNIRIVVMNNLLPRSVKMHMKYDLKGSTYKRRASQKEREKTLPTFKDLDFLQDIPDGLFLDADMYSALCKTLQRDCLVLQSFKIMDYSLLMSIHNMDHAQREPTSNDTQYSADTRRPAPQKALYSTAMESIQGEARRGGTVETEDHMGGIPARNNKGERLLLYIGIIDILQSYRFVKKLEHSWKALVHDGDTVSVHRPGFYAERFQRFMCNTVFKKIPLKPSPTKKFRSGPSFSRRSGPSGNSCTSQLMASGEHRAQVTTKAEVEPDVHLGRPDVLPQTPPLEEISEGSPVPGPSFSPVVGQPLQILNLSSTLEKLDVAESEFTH
myc-PIPKIα-(1–507): residues 1-507 of P70182
myc-PIPKIα-(1–438): residues 1-438 of P70182
UniProt P70181: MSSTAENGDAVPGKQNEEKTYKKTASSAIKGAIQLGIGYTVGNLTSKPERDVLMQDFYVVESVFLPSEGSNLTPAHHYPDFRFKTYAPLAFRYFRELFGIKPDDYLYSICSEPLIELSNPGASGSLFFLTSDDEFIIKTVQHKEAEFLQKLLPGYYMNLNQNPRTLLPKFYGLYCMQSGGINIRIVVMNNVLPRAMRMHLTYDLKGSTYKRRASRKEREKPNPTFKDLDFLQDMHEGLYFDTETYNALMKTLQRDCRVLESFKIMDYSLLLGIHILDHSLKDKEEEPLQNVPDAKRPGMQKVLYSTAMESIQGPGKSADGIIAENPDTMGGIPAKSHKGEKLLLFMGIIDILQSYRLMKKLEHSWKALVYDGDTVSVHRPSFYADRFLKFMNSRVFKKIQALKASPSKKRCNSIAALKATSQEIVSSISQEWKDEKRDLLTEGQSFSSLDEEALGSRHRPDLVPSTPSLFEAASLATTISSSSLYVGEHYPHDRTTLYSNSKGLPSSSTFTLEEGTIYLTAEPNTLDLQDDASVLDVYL
UniProt Q80SW1: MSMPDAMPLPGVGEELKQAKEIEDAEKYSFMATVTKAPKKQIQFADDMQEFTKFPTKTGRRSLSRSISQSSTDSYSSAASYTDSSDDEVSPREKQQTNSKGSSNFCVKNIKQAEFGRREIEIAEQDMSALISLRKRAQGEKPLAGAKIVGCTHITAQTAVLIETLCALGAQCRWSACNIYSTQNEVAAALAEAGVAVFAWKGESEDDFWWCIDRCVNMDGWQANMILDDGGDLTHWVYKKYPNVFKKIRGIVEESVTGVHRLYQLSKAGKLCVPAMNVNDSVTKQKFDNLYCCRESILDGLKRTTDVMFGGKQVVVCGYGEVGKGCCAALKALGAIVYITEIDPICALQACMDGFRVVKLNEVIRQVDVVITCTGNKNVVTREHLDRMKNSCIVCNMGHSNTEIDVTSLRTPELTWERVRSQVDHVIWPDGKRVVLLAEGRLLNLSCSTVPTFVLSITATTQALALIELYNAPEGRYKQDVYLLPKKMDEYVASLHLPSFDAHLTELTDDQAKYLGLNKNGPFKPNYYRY

Key:
Test in all cases: co-IP; COS-7 cells co-transfected with HA-IRBIT and myc-PIPK constructs; lysis buffer 10 mM Hepes pH 7.4, 100 mM NaCl, 2 mM EDTA, 1% Nonidet P-40; precipitated with anti-HA or anti-myc antibody and protein G-Sepharose at 4°C; Western blot
[1] = biological target: myc-tagged phosphatidylinositol phosphate kinase type Iγ (mouse) (UniProt O70161)
[2] = biological target: T1, myc-tagged phosphatidylinositol phosphate kinase type IIγ (rat) (UniProt O88370)
T1 sequence: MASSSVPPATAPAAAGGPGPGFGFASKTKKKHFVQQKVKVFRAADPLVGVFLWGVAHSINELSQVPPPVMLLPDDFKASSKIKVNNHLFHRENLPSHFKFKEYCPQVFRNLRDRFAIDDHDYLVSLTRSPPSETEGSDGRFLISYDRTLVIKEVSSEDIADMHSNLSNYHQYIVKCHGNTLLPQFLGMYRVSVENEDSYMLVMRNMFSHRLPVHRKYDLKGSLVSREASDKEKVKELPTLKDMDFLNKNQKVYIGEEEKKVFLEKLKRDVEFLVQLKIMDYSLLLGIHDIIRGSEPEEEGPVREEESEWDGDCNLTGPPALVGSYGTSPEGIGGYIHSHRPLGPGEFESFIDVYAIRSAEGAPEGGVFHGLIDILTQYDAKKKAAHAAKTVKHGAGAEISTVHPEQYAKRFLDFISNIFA

[3] = biological target: myc-PIPKIα-(1–438) (mouse) (UniProt P70182)
[4] = biological target: myc-tagged phosphatidylinositol phosphate kinase type Iα (mouse) (UniProt P70182)
[5] = biological target: T2, myc-PIPKIIα D273A (rat) (UniProt Q9R0I8)
T2 sequence: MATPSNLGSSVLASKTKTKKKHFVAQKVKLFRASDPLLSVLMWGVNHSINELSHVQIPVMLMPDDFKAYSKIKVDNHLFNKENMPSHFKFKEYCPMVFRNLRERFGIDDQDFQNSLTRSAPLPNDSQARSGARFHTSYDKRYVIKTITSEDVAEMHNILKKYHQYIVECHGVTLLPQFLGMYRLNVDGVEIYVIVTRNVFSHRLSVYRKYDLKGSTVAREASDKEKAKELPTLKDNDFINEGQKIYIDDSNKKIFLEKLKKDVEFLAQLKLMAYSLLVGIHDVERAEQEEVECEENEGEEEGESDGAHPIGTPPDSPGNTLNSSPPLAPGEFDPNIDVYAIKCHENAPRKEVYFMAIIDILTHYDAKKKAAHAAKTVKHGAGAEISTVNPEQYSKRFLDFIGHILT

[6] = biological target: myc-PIPKIα D389A (mouse) (UniProt P70182)
[7] = biological target: myc-tagged phosphatidylinositol phosphate kinase type Iβ (mouse) (UniProt P70181)
[8] = biological target: T3, myc-tagged phosphatidylinositol phosphate kinase type IIβ (rat) (UniProt O88377)
T3 sequence: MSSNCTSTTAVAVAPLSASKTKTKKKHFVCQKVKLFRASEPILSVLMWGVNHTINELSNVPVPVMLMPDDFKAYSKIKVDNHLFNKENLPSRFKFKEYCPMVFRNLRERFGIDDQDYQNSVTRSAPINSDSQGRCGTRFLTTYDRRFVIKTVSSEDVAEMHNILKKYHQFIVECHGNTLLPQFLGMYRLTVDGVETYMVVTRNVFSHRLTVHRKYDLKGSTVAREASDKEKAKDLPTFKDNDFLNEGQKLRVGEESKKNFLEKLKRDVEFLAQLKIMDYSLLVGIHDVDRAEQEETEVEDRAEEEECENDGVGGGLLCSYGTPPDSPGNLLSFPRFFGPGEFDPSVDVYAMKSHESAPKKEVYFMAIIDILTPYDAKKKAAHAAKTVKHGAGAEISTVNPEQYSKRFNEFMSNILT

[9] = biological target: myc-PIPKIα-(1–507) (mouse) (UniProt P70182)

Measured: binding

Hemagglutinin (HA)-tagged IRBIT (IP3R-binding protein released with inositol 1,4,5-trisphosphate) (from UniProt Q80SW1 1-530)
binds: all assays above
